Measurements as given in PubChem BioAssay AID360 (National Center for Advancing Translational Sciences (NCATS), 2006).
Among all 48,000 compounds or so, about 550 (1.1%) were called active. Not shown: some 4% with an inconclusive outcome. Cut-off read from the data, not from the text of the source: active = potency below about 15 µM; inconclusive = mostly about 16 µM to 33 µM; inactive = weaker than that. This is one part of the list.

biological target: Lysosomal acid glucosylceramidase (Homo sapiens) (UniProt P04062); experiment: Glucocerebrosidase; conditions: purified enzyme, resorufin glucoside fluorescence (screen aimed at inhibitors), 20 min;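 note: the screen sought inhibitors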
How it was run: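 Compounds titrated against 0.2 nM normal enzyme, 30 uM resorufin beta-D-glucopyranoside substrate, citrate/phosphate buffer with taurocholate and tween-20, pH 5.9. Reaction ran 20 min at room temperature; fluorescence (Ex 548/Em 600) gave AC50.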
Potency is the fitted concentration of half-maximal effect.

Chain of UniProt P04062 (P04062 whole entry, looked up): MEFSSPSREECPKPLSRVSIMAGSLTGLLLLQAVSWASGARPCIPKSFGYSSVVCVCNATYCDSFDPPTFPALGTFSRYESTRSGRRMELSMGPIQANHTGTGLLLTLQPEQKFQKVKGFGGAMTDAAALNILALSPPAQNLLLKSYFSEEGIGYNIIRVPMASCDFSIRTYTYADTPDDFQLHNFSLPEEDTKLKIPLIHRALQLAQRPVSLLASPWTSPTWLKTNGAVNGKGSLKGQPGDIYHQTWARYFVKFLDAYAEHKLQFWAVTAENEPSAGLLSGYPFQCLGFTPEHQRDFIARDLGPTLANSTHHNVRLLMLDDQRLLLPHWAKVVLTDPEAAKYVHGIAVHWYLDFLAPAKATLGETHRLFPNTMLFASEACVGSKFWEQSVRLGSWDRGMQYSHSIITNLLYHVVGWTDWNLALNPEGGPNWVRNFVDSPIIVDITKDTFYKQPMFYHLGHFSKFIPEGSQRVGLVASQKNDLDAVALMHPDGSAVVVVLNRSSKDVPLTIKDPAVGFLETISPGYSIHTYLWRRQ

Potency, inactive:
O=C(C1CCCN(S(=O)(=O)Cc2ccccc2)C1)N1CCc2ccccc21 (stereo unspecified) > 76.9 µM, COc1cc2c(=O)nc3n(c2cc1OC)C(c1ccccc1)N=C(N)N3 (stereo unspecified), COc1ccc(-c2cn3c4c(sc3n2)CCCC4)cc1 > 76.9 µM, O=C(c1ccccc1F)N1CCN(c2ccccc2)CC1 > 76.9 µM, c1ccc(CCN2CN=C(Nc3nc4ccccc4o3)NC2)cc1 > 76.9 µM, O=C(OCC(=O)c1ccco1)c1ccc2ncsc2c1 > 76.9 µM, CC1(C)CCCN(C(=O)c2coc(=O)c(Br)c2)C1 > 76.9 µM, CCOC(=O)c1oc2nc(C)c3c(c2c1N)CC(C)(C)OC3 > 76.9 µM, COc1cc2c(cc1OC)C(c1cccs1)CC(=O)N2 (stereo unspecified) > 76.9 µM, CCn1cc(C(=O)Nc2ccccc2C(=O)OC)c(=O)c2ccc(C)nc21 > 76.9 µM, COc1cc2cc(C)c3nnc(SCC(N)=O)n3c2cc1OC > 76.9 µM, CCn1nnnc1-c1ccc(OC)c(S(=O)(=O)Nc2ccc(OC)cc2)c1 > 76.9 µM, COc1ccc2nc(SCC(N)=O)cc(C)c2c1 > 76.9 µM, O=S(=O)(c1ccccc1)N1CCN(C2CCCCCCC2)CC1 > 76.9 µM, COc1cc(C(=O)O)ccc1OCC(=O)N1CCOCC1 > 76.9 µM, Cn1nc(C(=O)OCC(=O)N2CCc3ccccc32)c2ccccc2c1=O > 76.9 µM, O=C(CSc1nc2cc(Cl)ccc2s1)NC(=O)NCc1ccco1 > 76.9 µM, N=c1c(S(=O)(=O)c2ccccc2)cc2c(=O)n3ccccc3nc2n1Cc1ccco1 > 76.9 µM, N#Cc1cn(CC(=O)NCCc2c[nH]c3ccccc23)c2ccccc12 > 76.9 µM, Cc1ccc(N2C(=O)[C@@H]3[C@H](C2=O)C2c4ccccc4C=CN2[C@@H]3C(=O)c2ccco2)cc1 (stereo partly specified) > 76.9 µM, COC(=O)CCCc1nc2ccccc2s1 > 76.9 µM, Cc1cc(NC(=O)Cn2cnc3sc(C)c(-c4ccccc4)c3c2=O)no1 > 76.9 µM, C=CCn1c(SCC(=O)Nc2nc(C)cs2)nnc1C(CO)NC(=O)c1ccccc1 (stereo unspecified) > 76.9 µM, O=C(O)c1cc(=O)cc(C(=O)O)[nH]1 > 76.9 µM, COC(=O)c1ccc(OCCN2C3=NCCN3c3ccccc32)cc1, CCN(CCCNC(=O)C1CCC(=O)N1C1CCCC1)c1cccc(C)c1 (stereo unspecified) > 76.9 µM
